89 compounds from article PMC4336329 (PLoS ONE, 2015) can be followed below.

Each structure is given as a SMILES string. Hit rate of the full screen: of about 310,000 compounds, about 2,200 (0.71%) showed an effect of 50% or more. The effect is printed as a negative number. This is one part of the list.

human ether-à-go-go-related gene (hERG) potassium channel, sequence (Q12809 whole entry, looked up): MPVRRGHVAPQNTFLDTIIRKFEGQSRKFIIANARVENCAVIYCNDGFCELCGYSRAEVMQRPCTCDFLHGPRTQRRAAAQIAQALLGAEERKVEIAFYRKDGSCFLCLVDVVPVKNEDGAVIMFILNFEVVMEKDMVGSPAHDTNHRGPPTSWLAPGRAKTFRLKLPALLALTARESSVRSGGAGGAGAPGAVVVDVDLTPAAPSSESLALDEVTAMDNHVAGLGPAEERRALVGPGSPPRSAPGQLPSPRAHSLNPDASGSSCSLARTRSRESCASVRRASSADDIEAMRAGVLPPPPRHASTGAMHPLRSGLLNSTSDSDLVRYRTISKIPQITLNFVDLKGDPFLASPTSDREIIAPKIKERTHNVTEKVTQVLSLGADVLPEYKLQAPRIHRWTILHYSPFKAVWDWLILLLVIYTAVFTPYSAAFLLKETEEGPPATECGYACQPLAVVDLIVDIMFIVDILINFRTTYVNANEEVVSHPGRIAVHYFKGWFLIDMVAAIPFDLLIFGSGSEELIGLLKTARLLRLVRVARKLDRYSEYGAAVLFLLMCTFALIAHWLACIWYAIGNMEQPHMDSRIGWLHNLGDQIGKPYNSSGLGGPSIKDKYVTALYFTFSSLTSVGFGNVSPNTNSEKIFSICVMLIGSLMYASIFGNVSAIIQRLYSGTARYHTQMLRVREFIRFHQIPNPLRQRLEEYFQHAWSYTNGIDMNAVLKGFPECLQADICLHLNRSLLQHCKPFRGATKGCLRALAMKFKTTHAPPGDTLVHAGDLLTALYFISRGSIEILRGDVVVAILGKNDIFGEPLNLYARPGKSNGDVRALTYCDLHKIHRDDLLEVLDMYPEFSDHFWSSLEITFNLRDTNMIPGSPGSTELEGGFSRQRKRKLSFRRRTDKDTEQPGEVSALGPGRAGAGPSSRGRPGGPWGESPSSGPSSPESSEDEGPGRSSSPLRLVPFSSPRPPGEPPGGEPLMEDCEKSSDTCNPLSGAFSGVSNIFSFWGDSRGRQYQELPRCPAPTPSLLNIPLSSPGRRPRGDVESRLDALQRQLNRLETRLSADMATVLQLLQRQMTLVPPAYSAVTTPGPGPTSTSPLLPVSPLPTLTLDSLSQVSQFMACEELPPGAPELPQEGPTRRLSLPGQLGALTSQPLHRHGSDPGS

This assay concerns the target human ether-à-go-go-related gene (hERG) potassium channel (human, UniProt Q12809). The assay can be described thus: primary screen, population patch clamp on CHO cells stably expressing hERG.
Turning to `COc1ccc(C(C)=O)cc1COC(=O)Cc1cc(OC)c(OC)c(OC)c1`, the “hERG current change (%, negative = inhibition) at 1uM” value amounted to 8.45%. With `COc1ccc(CCNC(=O)CO/N=C/c2cc3c(cc2Br)OCO3)cc1OC` the figure was 14.5%; with `O=C(CSc1ncn(-c2ccccc2)n1)c1cccs1`, 8.29%; with `COc1ccc(C(C)=O)cc1CC(C(=O)c1ccc(F)cc1)N(C)C` (centres unmarked), 3.39%.

`Cc1ccc(CS(=O)(=O)CCC(=O)NCC2CCCO2)cc1` (centres unmarked): the “hERG current change (%, negative = inhibition) at 1uM” value is -13.3%. Consider `COc1ccc(-c2nc(CS(=O)CC(=O)N3CCN(C)CC3)c(C)o2)cc1` (centres unmarked), for which the “hERG current change (%, negative = inhibition) at 1uM” value is 13.5%. With `O=C(Cn1ccc([N+](=O)[O-])n1)N1CCc2ccccc21` the figure was 7.98%.

For the compound `Cc1ccccc1C(=O)O/N=C(\N)c1ccc([N+](=O)[O-])cc1`, the “hERG current change (%, negative = inhibition) at 1uM” value came to 10.2%.

For `Cc1ccc(N(CC(=O)N2CCN(c3ccc(F)cc3)CC2)S(=O)(=O)c2c(C)noc2C)cc1`, the “hERG current change (%, negative = inhibition) at 1uM” value came out at 4.59%. On to `CCN(Cc1nc2cc(Cl)ccc2c(=O)[nH]1)C(=O)c1cccc(NC(=O)c2cccs2)c1`, for which the “hERG current change (%, negative = inhibition) at 1uM” value came to 4.39%. In the case of `CN(Cc1cnccn1)C(=O)C1CCC(=O)N(CCc2ccccc2)C1` (centres unmarked) it was 17.4%; in that of `O=C(Nc1cc2cc([N+](=O)[O-])ccc2oc1=O)c1cccs1`, 9.93%; in that of `O=S(=O)(c1ccc(Cl)cc1)N1CCCCCC1`, 10.8%.

As for `O=C(N/N=C/c1cccnc1)c1cccc(Cl)c1`, the “hERG current change (%, negative = inhibition) at 1uM” value was determined as 11.7%. Turning to `COc1ccc(N(C(=O)c2cc3ccccc3oc2=O)C2C=CS(=O)(=O)C2)c(OC)c1` (centres unmarked), the “hERG current change (%, negative = inhibition) at 1uM” value stood at 5.01%. On to `COc1ccc(C2CC(=O)Oc3cc(O)cc(O)c32)cc1` (centres unmarked), for which the “hERG current change (%, negative = inhibition) at 1uM” value came to 7.9%.

Consider `COc1ccc(-c2nc(CCNC(=O)c3ccc(Br)o3)cs2)cc1`, for which the “hERG current change (%, negative = inhibition) at 1uM” value was determined as 13.6%. With `Cc1ccc(-n2cc(C(C)(C)C)[nH]c2=S)cc1` the figure was 7.74%; with `Cc1cc(C)c2cc(C(=O)N3CCC(C(=O)c4ccc(F)cc4)CC3)[nH]c2c1`, 8.43%. Take `CCOc1ccc(S(=O)(=O)Nc2cc(Sc3ncn[nH]3)c3oc(=O)sc3c2)cc1`: the “hERG current change (%, negative = inhibition) at 1uM” value is recorded as 3.06%. In the case of `CN1CCc2c(sc(/N=C/c3cc(Cl)ccc3O)c2C#N)C1` it was 7.61%; in that of `O=C(COC(=O)/C=C/c1ccc2c(c1)OCO2)NCc1ccccc1`, 8.25%; in that of `Cc1cccc(CC(=O)NCCN2CCCCC2)c1`, 9.95%.

`CCCCOc1ccc(C(=O)N=c2sccn2C)cc1OC`: the “hERG current change (%, negative = inhibition) at 1uM” value is 12.4%.

`COc1cccc(CNC(=O)CCC2CCCN(C(=O)Cc3ccccc3F)C2)c1` (centres unmarked): the “hERG current change (%, negative = inhibition) at 1uM” value stood at 7.89%.

For the compound `CN(Cc1nc(-c2ccncc2)no1)S(=O)(=O)c1ccccc1`, the “hERG current change (%, negative = inhibition) at 1uM” value is given as 3.79%. In the case of `Cc1nn(-c2ccccc2)c(C)c1C(=O)OCC(=O)Nc1ccccc1C(F)(F)F`, the “hERG current change (%, negative = inhibition) at 1uM” value amounted to 2.4%.

Regarding `Cc1ccc(C(=O)CCC(=O)NCc2ccccc2)cc1`, the “hERG current change (%, negative = inhibition) at 1uM” value worked out at 6.11%.

As to `COc1ccc(C2/C(=C(/O)c3ccc(Br)cc3)C(=O)C(=O)N2C)cc1` (centres unmarked), the “hERG current change (%, negative = inhibition) at 1uM” value was 6.5%. With `COc1cc(C(=O)Oc2ccc(Br)cc2C(=S)N2CCOCC2)cc(OC)c1OC` the figure was 3.16%; with `COc1cc(C2C(C(N)=O)=C(C)Nc3nc(CCCO)nn32)cc(OC)c1OC` (centres unmarked), 7.86%; with `CCN1CCN(c2ccc(NC(=O)C(C)C)cc2Cl)CC1`, 0.089%.

Take `CCn1ccnc1C(O)c1ccccc1OC` (centres unmarked): the “hERG current change (%, negative = inhibition) at 1uM” value is recorded as 6.85%. In the case of `CC(C)C(O)P(=O)(OCc1ccccc1)c1ccc(N(C)C)cc1` (centres unmarked) it was 0.25%; in that of `COc1ccc(CCN(C)CC(=O)Nc2ccc(F)c(Cl)c2)cc1OC`, 4.01%; in that of `CC(C)N1C(=O)S/C(=C/c2ccc3c(c2)n(C)c(=O)n3C)C1=O`, -5.59%.

Regarding `CCN(CC(=O)Nc1cccc(OC)c1)C(=O)c1cccc(S(=O)(=O)N2CCc3ccccc32)c1`, the “hERG current change (%, negative = inhibition) at 1uM” value is 13.1%.

Regarding `O=C(NCCOc1ccc(Cl)cc1)c1ccc2c(c1)OCCO2`, the “hERG current change (%, negative = inhibition) at 1uM” value came out at 8.3%. With `CCCCC(=O)O[C@]1(C(=O)CO)CC[C@H]2[C@@H]3CCC4=CC(=O)CC[C@]4(C)[C@H]3[C@@H](O)C[C@@]21C` the figure was 11.4%; with `Cc1ccc(N(CC(=O)NC2CC2)S(=O)(=O)c2ccccc2)c(C)c1`, 9.45%. With `CC(Cc1ccccc1)N/C=C1\CC(=O)NC1=O` (centres unmarked) the figure was 0.821%. In the case of `N#CCc1cnc2ccccc2n1` it was 7.74%; in that of `Cc1ccc(NC(=O)CCOc2ccccc2)c(C)c1`, 16.1%. As for `COc1ccc(CN2CCN(Cc3ccco3)CC2)cc1OC.O=C(O)C(=O)O`, the “hERG current change (%, negative = inhibition) at 1uM” value is listed as 8.06%. In the case of `CCOC(=O)c1c[nH]n(-c2ccccc2)c1=O` it was 15.1%; in that of `CCn1cc(NC(=O)CCl)c(C)n1`, 6.53%. For the compound `COc1ccccc1NC(=O)Cn1nnc(-c2ccccc2NC(=O)c2ccco2)n1`, the “hERG current change (%, negative = inhibition) at 1uM” value is 14.7%. Regarding `Cc1ccc(S(=O)(=O)N2CCC(=O)N(CCOC(=O)Nc3ccccc3C)CC2)cc1`, the “hERG current change (%, negative = inhibition) at 1uM” value turned out to be 10.5%. On to `Cc1cccc(OCCCC(=O)O)c1`, for which the “hERG current change (%, negative = inhibition) at 1uM” value is 9.15%. With `CCCC(=O)NC(c1ccc(N(C)C)cc1)c1c(O)ccc2ccccc12` (centres unmarked) the figure was 9.53%; with `CN(Cc1nc(-c2cccs2)no1)CC(O)c1ccccc1` (centres unmarked), -0.94%; with `Cc1ccc(-n2c(C)cc(/C=N/NC(=O)CC3(C)OCCO3)c2C)c(C)c1`, 14%.

Consider `CC1CCCCN1c1ccc(N)cc1C(N)=O` (centres unmarked), for which the “hERG current change (%, negative = inhibition) at 1uM” value stood at 4.3%. In the case of `O=C(c1ccc(Cl)c(S(=O)(=O)N2CCCCCC2)c1)N1CCCC1` it was -9.42%; in that of `Cc1ccc(S(=O)(=O)NCc2ccccc2C)cc1`, 14.7%. In the case of `CC(NC(=O)c1cc(COc2ccc3ncccc3c2)on1)c1ccc(F)cc1` (centres unmarked) it was 13.5%; in that of `CCC(=NCc1cccnc1)c1c(O)n(-c2ccc(Cl)cc2)c(=O)[nH]c1=O`, 2.75%. In the case of `CCCCNC(=O)NNc1nc(Cl)cc(C)c1C#N` it was 14.7%; in that of `O=C1CCC(C(=O)N2CCCCCC2)CN1CCc1ccc(Cl)cc1` (centres unmarked), 3.33%; in that of `O=C(Nc1ccc(F)cc1)c1csc(Cc2ccccc2)n1`, 3.2%. As to `N#Cc1c(-c2ccccc2)ccn(Cc2ccc(Cl)cc2)c1=O`, the “hERG current change (%, negative = inhibition) at 1uM” value came out at 11.7%. In the case of `Cc1n[nH]c(C)c1S(=O)(=O)N1CCN(S(=O)(=O)c2ccccc2C#N)CC1` it was 11.9%; in that of `COc1cc(C2/C(=C(\O)c3ccc4c(c3)OCCO4)C(=O)C(=O)N2Cc2ccccc2)ccc1O` (centres unmarked), 9.85%.

`CCC(=O)Nc1c(OC(=O)CC)ccc2c(C)cc(=O)oc12`: the “hERG current change (%, negative = inhibition) at 1uM” value came out at 12.7%. In the case of `c1ccc2[nH]c(SCC3CCCCO3)nc2c1` (centres unmarked) it was 11.8%; in that of `CCOC(=O)c1c(-c2ccc(OC)cc2)csc1NC(=O)CSc1ccccc1`, 0.854%. In the case of `N#Cc1ccccc1CSc1nc(N2CCCCC2)nc(N2CCCCC2)n1` it was 11.1%; in that of `CN(C)C(CNC(=O)Cc1cccc(C(F)(F)F)c1)c1ccco1` (centres unmarked), 6.63%. With `CCOc1ccc(C=NC23CN4CN(CN(C4)C2)C3)cc1` the figure was 9.28%; with `O=C(Nc1ccc(F)c(Cl)c1)C1CCCN(c2cnccn2)C1` (centres unmarked), 1.25%.

`O=C(/C=C/c1ccc2c(c1)OCO2)c1ccco1`: the “hERG current change (%, negative = inhibition) at 1uM” value was 11.2%. Regarding `O=C(O)c1cccc(S(=O)(=O)Nc2ccccc2-c2ccccc2)c1`, the “hERG current change (%, negative = inhibition) at 1uM” value came out at 16%. As for `COc1cc(OC)cc(C(=O)NC(=S)N2CCN(c3ccc(C(F)(F)F)cc3[N+](=O)[O-])CC2)c1`, the “hERG current change (%, negative = inhibition) at 1uM” value is 8.36%.

`O=C(CC1CCCC1)OCn1nnc2ccccc2c1=O`: the “hERG current change (%, negative = inhibition) at 1uM” value came to 8.49%. As to `O=C(O)CCc1nn2c3ccccc3n(CC(=O)c3cccs3)c2nc1=O`, the “hERG current change (%, negative = inhibition) at 1uM” value came to 9.07%. Regarding `COc1ccc(OC)c(N(CC(=O)Nc2ccc3c(c2)OCO3)S(=O)(=O)c2ccccc2)c1`, the “hERG current change (%, negative = inhibition) at 1uM” value is 4.77%.

With `CCN(CC)Cc1c(C(=O)N/N=C/c2cccc(OCc3cccc(Cl)c3)c2)nnn1-c1nonc1N`, the “hERG current change (%, negative = inhibition) at 1uM” value is -11.7%. For the compound `Cc1ccc2nc(SCC(=O)Nc3cc([N+](=O)[O-])ccc3F)[nH]c2c1`, the “hERG current change (%, negative = inhibition) at 1uM” value is -2.2%.

In the case of `COC(=O)/C(=N\Nc1ccccc1)Sc1nnc(-c2ccc(OC)cc2)n1C`, the “hERG current change (%, negative = inhibition) at 1uM” value is on record as 8.26%. In the case of `OCC(O)/C=N/Nc1nc(N2CCCCC2)nc(N2CCCCC2)n1` (centres unmarked) it was 10.7%; in that of `O=C(CC(c1ccc(F)cc1)c1ccco1)N1CCCC1` (centres unmarked), 8.45%; in that of `CCn1c(SCc2nc3ccccc3s2)nc2cc(S(=O)(=O)N3CCOCC3)ccc21`, -1.06%. For `Cc1ccc(S(=O)(=O)NCC(=O)N(CC(=O)NCC2CCCO2)C2CCCC2)cc1` (centres unmarked), the “hERG current change (%, negative = inhibition) at 1uM” value was -2.76%.

Regarding `COc1ccc(-n2cc(-c3ccccc3)nc2SC)cc1`, the “hERG current change (%, negative = inhibition) at 1uM” value is 0.094%. With `Cc1ccc(C)c(N2CCN(CC(=O)Nc3ccc([N+](=O)[O-])cc3C(=O)Nc3ccccc3F)CC2)c1` the figure was -20.3%; with `O=C(Nc1ccccc1Oc1ccccc1)c1cccs1`, 7.76%.

For the compound `Cc1cccc(N=C2NC(=O)CS2)c1C`, the “hERG current change (%, negative = inhibition) at 1uM” value is recorded as 10.8%. In the case of `COc1ccc(CN2CCC(=O)N(CCO)CC2)cc1OC` it was -3.62%; in that of `CCCc1cc(=O)oc2cc(OCC(=O)NC(Cc3ccc(Cl)cc3)C(=O)O)ccc12` (centres unmarked), 14.8%.
